Measurements reported in patent US20150017170A1, “BIOMARKER FOR SELECTING A SUBJECT FOR APPLICATION OF AN ANTI-C-MET ANTIBODY” (Samsung Electronics Co., Ltd., priority 2013, published 2015).

How the values were obtained:
Details in all cases: among huAbF46-H4-A1, -A2, -A3, -A5
Akt = Akt phosphorylation by the four affinity-matured antibodies; type: cell-based
c-Met [1] = target: T1, c-Met (Homo sapiens, UniProt P08581); assay: c-Met degradation degree of the four affinity-matured antibodies; type: cell-based; parameters: endogenous in cells; host or cells: EBC1 cells (JCRB JCRB0820)
T1 sequence (P08581 25-1390): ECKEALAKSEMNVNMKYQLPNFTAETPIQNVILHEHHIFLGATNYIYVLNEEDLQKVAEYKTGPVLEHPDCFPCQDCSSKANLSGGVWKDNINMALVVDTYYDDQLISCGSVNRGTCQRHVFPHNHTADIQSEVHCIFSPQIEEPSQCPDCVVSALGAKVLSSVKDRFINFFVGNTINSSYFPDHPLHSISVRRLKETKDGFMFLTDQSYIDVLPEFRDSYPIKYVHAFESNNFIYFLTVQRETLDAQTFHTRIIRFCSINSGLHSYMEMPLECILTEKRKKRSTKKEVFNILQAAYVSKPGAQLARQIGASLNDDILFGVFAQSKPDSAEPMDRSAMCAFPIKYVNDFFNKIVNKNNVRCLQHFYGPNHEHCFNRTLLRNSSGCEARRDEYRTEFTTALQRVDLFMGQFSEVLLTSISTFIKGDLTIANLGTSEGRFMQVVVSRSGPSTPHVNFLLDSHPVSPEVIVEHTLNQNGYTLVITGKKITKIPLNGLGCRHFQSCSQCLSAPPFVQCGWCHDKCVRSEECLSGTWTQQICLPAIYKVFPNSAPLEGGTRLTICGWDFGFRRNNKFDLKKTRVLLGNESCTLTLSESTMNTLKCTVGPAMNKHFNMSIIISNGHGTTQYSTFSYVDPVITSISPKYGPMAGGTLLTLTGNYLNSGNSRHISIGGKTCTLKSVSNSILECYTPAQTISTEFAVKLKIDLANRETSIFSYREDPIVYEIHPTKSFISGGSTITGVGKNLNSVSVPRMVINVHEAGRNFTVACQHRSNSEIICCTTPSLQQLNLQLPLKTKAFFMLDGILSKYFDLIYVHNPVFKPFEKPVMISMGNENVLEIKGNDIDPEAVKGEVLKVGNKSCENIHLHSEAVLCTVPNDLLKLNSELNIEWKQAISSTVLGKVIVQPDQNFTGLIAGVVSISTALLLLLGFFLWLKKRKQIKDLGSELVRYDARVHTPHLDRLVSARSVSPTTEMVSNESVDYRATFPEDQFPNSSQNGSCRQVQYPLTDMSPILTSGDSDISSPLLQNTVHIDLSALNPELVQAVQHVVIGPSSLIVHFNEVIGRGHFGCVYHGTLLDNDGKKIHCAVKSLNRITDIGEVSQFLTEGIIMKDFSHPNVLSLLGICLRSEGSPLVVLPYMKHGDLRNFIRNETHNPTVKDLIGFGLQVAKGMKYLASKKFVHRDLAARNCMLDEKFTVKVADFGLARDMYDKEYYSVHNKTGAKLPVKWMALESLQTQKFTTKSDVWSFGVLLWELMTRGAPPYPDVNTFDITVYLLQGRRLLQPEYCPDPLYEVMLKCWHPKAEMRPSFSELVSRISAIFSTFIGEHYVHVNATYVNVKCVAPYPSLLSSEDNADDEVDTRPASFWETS

c-Met [2] = target: T1, c-Met; assay: Affinity for c-Met of the four affinity-matured antibodies; type: binding; parameters: endogenous in cells; host or cells: EBC1 cells (JCRB JCRB0820)

- c-Met degradation degree (rank among the four selected antibodies) (c-Met [1]): lowest
- affinity for c-Met (rank among the four selected antibodies) (c-Met [2]): highest
B1: huAbF46-H4-A1: affinity-matured humanized anti-c-Met antibody, L3-1 origin CDR-L3, U6-HC7 hinge (antibody)
heavy: EVQLVESGGGLVQPGGSLRLSCAASGFTFTDYYMSWVRQAPGKGLEWLGFIRNKANGYTTEYSASVKGRFTISRDNSKNTLYLQMNSLRAEDTAVYYCARDNWFAYWGQGTLVTVSSASTKGPSVFPLAPSSKSTSGGTAALGCLVKDYFPEPVTVSWNSGALTSGVHTFPAVLQSSGLYSLSSVVTVPSSSLGTQTYICNVNHKPSNTKVDKKVEPKSCDCH[skipping human IgG1 Fc]
light: DIQMTQSPSSLSASVGDRVTITCKSSQSLLASGNQNNYLAWHQQKPGKAPKMLIIWASTRVSGVPSRFSGSGSGTDFTLTISSLQPEDFATYYCQQSYSRPYTFGQGTKVEIKRTVAAPSVFIFPPSDEQLKSGTASVVCLLNNFYPREAKVQWKVDNALQSGNSQESVTEQDSKDSTYSLSSTLTLSKADYEKHKVYACEVTHQGLSSPVTKSFNRGEC
- Akt phosphorylation (rank among the four selected antibodies) (Akt): lowest
